Laboratory results taken from patent publication US20220340642A1 (Kyowa Kirin, published 2022).

Assays:
[1] = biological target: T1, soluble recombinant of human TL1A (His6, GS linker, Leu72-Leu251) (UniProt O95150 72-251); test: BIAcore SPR
T1 chain: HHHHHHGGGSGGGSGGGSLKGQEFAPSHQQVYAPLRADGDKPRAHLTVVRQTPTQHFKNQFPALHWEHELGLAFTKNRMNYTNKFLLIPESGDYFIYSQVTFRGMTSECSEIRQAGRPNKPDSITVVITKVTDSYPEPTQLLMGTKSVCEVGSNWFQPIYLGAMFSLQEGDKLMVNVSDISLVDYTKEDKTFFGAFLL

[2] = biological target: T2, soluble recombinant of human LIGHT (His10, GS linker, Asp74-Val240); test: BIAcore SPR
T2 chain: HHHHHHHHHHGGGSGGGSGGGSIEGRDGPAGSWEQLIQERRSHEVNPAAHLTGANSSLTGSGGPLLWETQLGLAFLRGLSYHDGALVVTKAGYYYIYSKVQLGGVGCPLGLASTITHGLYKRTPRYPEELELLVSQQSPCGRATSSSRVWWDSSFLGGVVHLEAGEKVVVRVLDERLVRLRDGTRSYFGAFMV

[3] = biological target: T3, soluble recombinant of human FasL (His6, Pro134-Leu281) (UniProt P48023 134-281); test: BIAcore SPR
T3 chain: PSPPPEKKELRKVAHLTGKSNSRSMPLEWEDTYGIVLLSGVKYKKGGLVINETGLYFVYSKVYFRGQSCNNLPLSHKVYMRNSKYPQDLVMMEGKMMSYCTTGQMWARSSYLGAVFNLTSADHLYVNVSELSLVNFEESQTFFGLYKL

[4] = biological target: T4, soluble recombinant of human LIGHT (His10, GS linker, Asp74-Val240) (human); test: SPR, binder captured
T4 chain: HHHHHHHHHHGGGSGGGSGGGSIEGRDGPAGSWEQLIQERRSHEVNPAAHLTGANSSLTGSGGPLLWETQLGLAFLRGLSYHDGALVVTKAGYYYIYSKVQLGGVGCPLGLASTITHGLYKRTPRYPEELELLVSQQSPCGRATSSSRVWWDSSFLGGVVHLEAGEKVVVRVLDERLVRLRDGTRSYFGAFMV
Procedure: (§1) Regarding each of the various wild-type DcR3 controls and the DcR3 variants shown in Table 9, the binding activities to DcR3 ligands (LIGHT, TL1A, FasL) were analyzed by the SPR method using BIAcore T-100 (GE Healthcare). As the buffer, HBS-EP+Buffer was used.
(§2) After 10,000 RU of anti-human antibodies were immobilized to Series S Sensor Chip CM5 using Human Antibody Capture Kit (GE Healthcare), various wild-type DcR3 controls and DcR3 variants were injected at the flow rate of 10 μL/min for 30 seconds and captured. Meanwhile, the buffer containing no protein was injected into reference flow cells. Thereafter, as an analyte, DcR3 ligands of a human, a cynomolgus monkey or a mouse diluted to 0.08 to 80 nmol/L were injected at 10 μL/min for 2 minutes to monitor the binding, and subsequently the buffer was injected for 3 minutes to monitor dissociation. Then, 3 mol/L magnesium chloride was injected at 20 μL/min for 1 minute to perform a regeneration reaction. […] As a result of measurement, except for mouse LIGHT for which a trimer could not be produced, it was confirmed that various wild-type DcR3 controls and DcR3 variants bind to each DcR3 ligand of a human, a cynomolgus monkey or a mouse.

[5] = biological target: T5, soluble recombinant of human TL1A (His6, GS linker, Leu72-Leu251) (human, UniProt O95150 72-251); test: SPR, binder captured
T5 construct: also called His6-TL1A; hTL1A
T5 sequence: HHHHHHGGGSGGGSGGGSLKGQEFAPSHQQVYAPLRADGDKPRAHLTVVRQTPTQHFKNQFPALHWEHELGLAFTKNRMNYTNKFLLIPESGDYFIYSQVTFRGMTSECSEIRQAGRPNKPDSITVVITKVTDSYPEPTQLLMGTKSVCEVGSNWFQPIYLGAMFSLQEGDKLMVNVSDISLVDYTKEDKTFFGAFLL
Procedure: as §1, §2

[6] = biological target: T6, soluble recombinant of human FasL (His6, Pro134-Leu281) (human, UniProt P48023 134-281); test: SPR, binder captured
T6 sequence: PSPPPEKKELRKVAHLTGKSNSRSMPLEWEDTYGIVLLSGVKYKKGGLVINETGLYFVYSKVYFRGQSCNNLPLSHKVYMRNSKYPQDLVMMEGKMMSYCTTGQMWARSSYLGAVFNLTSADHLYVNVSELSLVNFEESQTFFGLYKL
Procedure: as §1, §2

B1: chimera A-E57V-Fc (g4PEK) (Fc fusion)
chain: ETFPPKYLHYDEETSHQLLCDKCPPGTYLKQHCTAKWKTVCAPCPPRHYTQFWNYLVRCRYCNVLCGEREEEARACHATHNRACRCRTGFFAHAGFCLEHASCPPGAGVIAPGTPSQNTQCQPCPDGFFSNETSSKAPCRKHTNCSVFGLLLTQKGNATHDNICSGNSESTQK[omitted - human IgG4 Fc with S228P L235E R409K (EU numbers)]
Kd [1]: 0.25 nM
Kd [2]: 0.31 nM
Kd [3]: 2.3 nM

B2: 103-123OPG-Fc (g4PEK) (Fc fusion)
chain: ETFPPKYLHYDEETSHQLLCDKCPPGTYLKQHCTAKWKTVCAPCPPRHYTQFWNYLERCRYCNVLCGEREEEARACHATHNRACRCRTGFFAHAGFCLEHASCPPGFGVVQAGTPERNTVCKRCPDGFFSNETSSKAPCRKHTNCSVFGLLLTQKGNATHDNICSGNSESTQK[omitted - human IgG4 Fc with S228P L235E R409K (EU numbers)]
notes: also called 103-1230PG-Fc
Kd [4]: 0.66 nM
koff [4]: 0.0003 s⁻¹
kon [4]: 450000 M⁻¹ s⁻¹
Kd [5]: 0.47 nM
koff [5]: 0.00033 s⁻¹
kon [5]: 710000 M⁻¹ s⁻¹
Kd [6]: 1.4 nM
koff [6]: 0.0012 s⁻¹
kon [6]: 850000 M⁻¹ s⁻¹

B3: N131S/N144S-Fc (g4PEK) (Fc fusion)
chain: ETFPPKYLHYDEETSHQLLCDKCPPGTYLKQHCTAKWKTVCAPCPPRHYTQFWNYLERCRYCNVLCGEREEEARACHATHNRACRCRTGFFAHAGFCLEHASCPPGAGVIAPGTPSQNTQCQPCPDGFFSSETSSKAPCRKHTSCSVFGLLLTQKGNATHDNICSGNSESTQK[omitted - human IgG4 Fc with S228P L235E R409K (EU numbers)]
notes: also called N131S/N1445-Fc (g4PEK)
Kd [4]: 0.87 nM
koff [4]: 0.00033 s⁻¹
kon [4]: 350000 M⁻¹ s⁻¹
Kd [5]: 0.51 nM
koff [5]: 0.00031 s⁻¹
kon [5]: 610000 M⁻¹ s⁻¹
Kd [6]: 2.5 nM
koff [6]: 0.0015 s⁻¹
kon [6]: 570000 M⁻¹ s⁻¹

B4: T133A/S146A-Fc (g4PEK) (Fc fusion)
chain: ETFPPKYLHYDEETSHQLLCDKCPPGTYLKQHCTAKWKTVCAPCPPRHYTQFWNYLERCRYCNVLCGEREEEARACHATHNRACRCRTGFFAHAGFCLEHASCPPGAGVIAPGTPSQNTQCQPCPDGFFSNEASSKAPCRKHTNCAVFGLLLTQKGNATHDNICSGNSESTQK[omitted - human IgG4 Fc with S228P L235E R409K (EU numbers)]
Kd [4]: 0.83 nM
koff [4]: 0.00031 s⁻¹
kon [4]: 380000 M⁻¹ s⁻¹
Kd [5]: 0.53 nM
koff [5]: 0.00033 s⁻¹
kon [5]: 630000 M⁻¹ s⁻¹
Kd [6]: 2.3 nM
koff [6]: 0.0013 s⁻¹
kon [6]: 560000 M⁻¹ s⁻¹

B5: chimera A-E57K_R58D-Fc (g4PEK) (Fc fusion)
chain: ETFPPKYLHYDEETSHQLLCDKCPPGTYLKQHCTAKWKTVCAPCPPRHYTQFWNYLKDCRYCNVLCGEREEEARACHATHNRACRCRTGFFAHAGFCLEHASCPPGAGVIAPGTPSQNTQCQPCPDGFFSNETSSKAPCRKHTNCSVFGLLLTQKGNATHDNICSGNSESTQK[omitted - human IgG4 Fc with S228P L235E R409K (EU numbers)]
notes: also called 45-10-Fc; variant number 45-10
Kd [1]: 0.22 nM
Kd [2]: 0.24 nM
Kd [3]: 2.1 nM

B6: chimera A-E57K_R58E-Fc (g4PEK) (Fc fusion)
chain: ETFPPKYLHYDEETSHQLLCDKCPPGTYLKQHCTAKWKTVCAPCPPRHYTQFWNYLKECRYCNVLCGEREEEARACHATHNRACRCRTGFFAHAGFCLEHASCPPGAGVIAPGTPSQNTQCQPCPDGFFSNETSSKAPCRKHTNCSVFGLLLTQKGNATHDNICSGNSESTQK[omitted - human IgG4 Fc with S228P L235E R409K (EU numbers)]
notes: also called 45-18-Fc; variant number 45-18
Kd [1]: 0.19 nM
Kd [2]: 0.22 nM
Kd [3]: 2.5 nM

B7: chimera A-E57R_R58D-Fc (g4PEK) (Fc fusion)
chain: ETFPPKYLHYDEETSHQLLCDKCPPGTYLKQHCTAKWKTVCAPCPPRHYTQFWNYLRDCRYCNVLCGEREEEARACHATHNRACRCRTGFFAHAGFCLEHASCPPGAGVIAPGTPSQNTQCQPCPDGFFSNETSSKAPCRKHTNCSVFGLLLTQKGNATHDNICSGNSESTQK[omitted - human IgG4 Fc with S228P L235E R409K (EU numbers)]
notes: also called 82-5-Fc; variant number 82-5
Kd [1]: 0.24 nM
Kd [2]: 0.28 nM
Kd [3]: 2.2 nM

B8: chimera A-E57R-Fc (g4PEK) (Fc fusion)
chain: ETFPPKYLHYDEETSHQLLCDKCPPGTYLKQHCTAKWKTVCAPCPPRHYTQFWNYLRRCRYCNVLCGEREEEARACHATHNRACRCRTGFFAHAGFCLEHASCPPGAGVIAPGTPSQNTQCQPCPDGFFSNETSSKAPCRKHTNCSVFGLLLTQKGNATHDNICSGNSESTQK[omitted - human IgG4 Fc with S228P L235E R409K (EU numbers)]
Kd [1]: 0.41 nM
Kd [2]: 0.38 nM
Kd [3]: 3.2 nM
